From PubChem BioAssay AID624296 (National Center for Advancing Translational Sciences (NCATS), 2012)
In all, about 350,000 compounds went through this assay and about 9,900 (2.8%) were called active. Inconclusive results, whose numbers are uncertain, are shown with a selection of clear calls. The call rests on the fitted dose curve; in most records, active means well fitted activation curve with a large enough effect; inconclusive means small, poorly fitted or top-dose-only effect; inactive means no such curve, though single readings can be large or run the other way. No potency is given beside an inconclusive call; the fits are too rough.

Assay: A quantitative high throughput screen for small molecules that induce DNA re-replication in MCF 10a normal breast cells. Further: nearly all actives have a fitted effect of over 50% in size. On activity, positive = re-replication: % of control where 0% means no effect.
Conditions: MCF 10A DNA re-replication, Hoechst nuclear intensity, 48 h; activity, positive = re-replication: at 46.1 µM (top of the series)
Potency means the concentration at half of the fitted maximal effect; tags describe the fitted curve by direction and shape.

Row | SMILES | activity, positive = re-replication | Potency
1 | COC(=O)CN1C(=O)[C@H]2[C@@H](C3CC3)N3C(=O)CN(CCO)C(=O)[C@@]3(Cc3ccccc3)[C@H]2C1=O | inactive: 7.34% | –
2 | Cc1sc(NC(=O)C2C3CCC(C3)C2C(=O)O)c(C(N)=O)c1-c1ccc(C(C)(C)C)cc1 (centres undefined) | – | inconclusive [activator, single point]
3 | C=CCn1c(SCC(N)=O)nc2sc3c(c2c1=O)CCC3 | – | inconclusive [activator, partial curve, poor fit]
4 | O=C(Cc1ccccc1F)Nc1ccc(SC(F)F)cc1 | inactive: -6.01% | –
5 | O=C(Nc1ncccc1Cl)C1COc2ccccc2O1 (centres undefined) | – | inconclusive [activator, single point]
6 | COc1ccc(C(c2nnnn2Cc2ccccc2)N2CCN(c3nc4ccccc4s3)CC2)cc1OC (centres undefined) | – | inconclusive [activator, full curve]
7 | CCCCn1c(N)c(N(CCC(C)C)C(=O)COC(=O)/C=C/c2ccc(F)cc2)c(=O)[nH]c1=O | – | inconclusive [activator, single point]
8 | COC(=O)Cc1[nH]nc2c1C(C1C=CCCC1)C(C#N)=C(N)O2 (centres undefined) | inactive: 11.2% | –
9 | C=C1N(C)c2cc([N+](=O)[O-])c(N)cc2C1(C)C | – | inconclusive [activator, full curve, poor fit]
10 | Cc1ccc(S(=O)(=O)c2nc(-c3ccco3)oc2SC(C)C)cc1 | inconclusive: -26.5% [activator] | –
11 | C=CCOC(=O)/C(=C/c1ccco1)NC(=O)/C=C/c1ccccc1 | – | inconclusive [activator, single point]
12 | CC1CCC2(CC1)NC(=O)N(CC(=O)Nc1ccc(F)cc1)C2=O (centres undefined) | – | inconclusive [activator, partial curve, poor fit]
13 | Cc1nnc(NC(=O)C2c3ccccc3Oc3ccccc32)s1 | – | active: 13 µM
14 | CC1CCN(Cc2nc(-c3ccc(Cl)cc3)no2)CC1 | – | inconclusive [activator, partial curve, poor fit]
15 | CCOC(=O)c1cccc(NC(=O)CCS(=O)(=O)c2ccc(Br)s2)c1 | inactive: -0.268% | –
16 | CCc1c(C#N)c(SCCC(=O)Nc2ccc(F)cc2)nc2c1C(=O)CC(C)(C)C2 | – | inconclusive [activator, single point]
17 | Cc1ccc(C2=C(O)c3ccccc3C(=O)C2=O)cc1 | inactive: -2.94% | –
18 | COc1ccc(OC)c(NC(=O)CN2CCN(C(=O)c3ccco3)CC2)c1 | – | inconclusive [activator, full curve, poor fit]
19 | CC(=O)N1CCc2c(sc(NC(=O)CCS(=O)(=O)c3ccc(C)cc3)c2C(N)=O)C1 | – | active: 3.26 µM
